Experimental findings from publication PMC10726135 are described below.

The list shows a part of the results. At the low end of the ranking, values are background and their order means little. The protein was read in a cell extract, so binding may be indirect.

The test deals with T1, HNF4alpha2 (COS-7 nuclear extract) (UniProt P41235).
T1 sequence: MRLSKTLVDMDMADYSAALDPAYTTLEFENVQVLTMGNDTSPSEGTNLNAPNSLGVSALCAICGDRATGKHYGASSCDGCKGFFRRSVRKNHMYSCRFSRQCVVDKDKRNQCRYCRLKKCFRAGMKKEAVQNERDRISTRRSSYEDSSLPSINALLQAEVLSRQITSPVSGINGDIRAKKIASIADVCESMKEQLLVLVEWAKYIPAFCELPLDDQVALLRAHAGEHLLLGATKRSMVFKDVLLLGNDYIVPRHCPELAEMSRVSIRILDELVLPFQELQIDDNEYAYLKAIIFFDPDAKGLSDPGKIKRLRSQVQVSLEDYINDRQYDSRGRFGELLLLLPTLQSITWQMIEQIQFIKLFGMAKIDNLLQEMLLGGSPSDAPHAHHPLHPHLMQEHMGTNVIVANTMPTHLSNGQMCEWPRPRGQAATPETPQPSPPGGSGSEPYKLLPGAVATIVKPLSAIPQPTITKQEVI
Briefly: protein-binding microarray. To be noted: COS-7 nuclear extract on double-stranded Agilent 4x180k PBM; binding buffer, salt, pH and temperature not given; high values mean tight binding; double strand, one strand shown; sequences stand for … in …GCCTAGGGAGATTAGAGTATCGGTCGA
For CTGACCTTTGCCCCCAGCCTCTCACAGTAG, the binding signal (log2 normalized intensity) came out at 6.87.
Turning to TCAACCAGGTTCTCTTTACTGAACGCTGCG, the binding signal (log2 normalized intensity) was -1.17.
As to AGAACCTGGAACCTAGAGGCCTTTCTCTCT, the binding signal (log2 normalized intensity) was -1.16.
As for GCAGGGAGGATATCCCTCCGCCTCCCTCCC, the binding signal (log2 normalized intensity) stood at 2.82.
Take TTTGTGTGGTGAGGAAAAGGAGGAGTTTGA: the binding signal (log2 normalized intensity) was 0.669.
With GAGTTTGGCCCCAGTTCCCATGGACTGGTT the figure was 0.253; with GGCAGGACTCTGTCCTGGGCACTGTCCTAG, -0.209; with TGGGTGGGGGAAGTGTGGTCAAGGGTCAGT, 4.
Consider GGGACTAGAACTCAGTGTGAACTCAATGCT, for which the binding signal (log2 normalized intensity) was -1.02.
CACTCCCTGGAGCAAACTTACTCTGGGGGA: the binding signal (log2 normalized intensity) is -1.09.
For GCCGTTCAGGGCCACGGGAAAACCTGACTG, the binding signal (log2 normalized intensity) was -1.14.
For ACTTTCTGACTGGCCTGGGAACCCCAAGTT the value was 0.686; for TAGGATTAAACACGTTTTATTAGGGGTCAG, 3.27.
With CAAGGAAATCTGGGAAATGTAGCTTTTAAA, the binding signal (log2 normalized intensity) was -1.16.
ACAGGTGGGGGTAAACATAGCAGAAGACCC: the binding signal (log2 normalized intensity) was -0.722.
As to CTCTCTCTCTCTCACACACACACACACACA, the binding signal (log2 normalized intensity) worked out at 2.03.
Consider GGATGGGGTGCAAACTCACCTGGAGAAGCA, for which the binding signal (log2 normalized intensity) was -1.1.
For CCCATTCCTTAGTGCATGGGAACTTCTCAC, the binding signal (log2 normalized intensity) worked out at 0.137.
With GGCATATCCAACCTTCTCCCACTTCCCTGC, the binding signal (log2 normalized intensity) was determined as 0.618.
For AAAGGTCTTTGGTGGTGGGGGGTAGCCACT the value was 0.77; for CTCAGGCCGACCCCTGCCTGGACTGTCCTA, 2.03; for TTCTTGCTGCAGCTGGGCTATACAATTCCA, -1.18.
On to CCGTGGTGTATGATGACGCCACGCCGCTCT, for which the binding signal (log2 normalized intensity) was -1.08.
With GCCTTGTGTACTGAGCAGGGTCCAACCCAC, the binding signal (log2 normalized intensity) amounted to 2.7.
In the case of GGCTTCCCAACTCCATTATCTCTGTAAAAG, the binding signal (log2 normalized intensity) came out at 0.732.
Take GGATGGACTTTAATCTCCAAGTAACTGAAA: the binding signal (log2 normalized intensity) came to 3.01.
In the case of ACAAAACAGCGTACTGTGCTAAAGAGTGAT, the binding signal (log2 normalized intensity) is -0.918.
For the sequence GTAAACACAGACTTTGGAATCACAATGATA, the binding signal (log2 normalized intensity) is 1.97.
As to ATGTTATCATTAGGGAAAATAGTGACCCTG, the binding signal (log2 normalized intensity) came out at 3.24.
With AACCCTGTTCTTGTAGGATTTCCAAGTGGA the figure was 1.54.
Take GGTATTACAAAGCAATCTACTTTTCTTTTG: the binding signal (log2 normalized intensity) was found to be 0.209.
As for GGTATTGAGGGAGCAAAGGGCATGGAGGAT, the binding signal (log2 normalized intensity) was determined as 2.42.
For the sequence GGTAACATCAAAGCCAGGACTTCTAGAGTG, the binding signal (log2 normalized intensity) is -1.22.
Turning to TCCATTTCTGCCCCTTGCTCCTGCTTGCTG, the binding signal (log2 normalized intensity) came out at 1.83.
For TCGGGGCCTGGTCTGCACTCCAGGAAAGAC the value was -0.674; for TGCAGCAAAACTTTAGGACTTTGAACCTTG, 8.63; for CTGGCAAATGAAATGTAATCAGCAAGTTTT, 0.0878.
For AAATCAGAACAGTCTGTGACTTGATCTTTG the value was 2.27; for CAGGACGTGAAGCAACTAGAACTCTCAGAC, -1.14; for AAGGCTGACCACGGGGGCCGCTCTCCCTCC, -1.09.
